# From the supplement of paper PMC9446081
# In all, about 39,000 compounds went through this assay and about 220 (0.56%) showed activity. The list shows a part of the results.
# Tested on: Escherichia coli K-12 BW25113
# Experiment: relative growth (OD600 normalised to plate interquartile mean) (fraction); higher = less growth inhibition, active = 0.2 or less
# Details: 50 µM; LB; incubation time: overnight (16-24 h)
# 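Note: static incubation at 37 °C against the wild-type strain, values averaged over two biological replicates.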
row,Structure (SMILES),relative growth
1,COc1ccc(S(=O)(=O)N(C)C[C@H]2Oc3c(NS(=O)(=O)c4c(C)noc4C)cccc3C(=O)N([C@@H](C)CO)C[C@H]2C)cc1,inactive: 1.04
2,O=C(N[C@H]1CC=CC[C@H](CC(=O)N(CCO)Cc2ccccc2)C(=O)NCC(c2ccccc2)OC1=O)OCC1c2ccccc2-c2ccccc21 (stereo not given in full),inactive: 0.933
3,O=C(N[C@@H]1CC[C@@H](CCn2cc(C3(O)CCCC3)nn2)O[C@H]1CO)C1CCOCC1,inactive: 1
4,C[C@H](CO)N1C[C@H](C)[C@H](CN(C)C(=O)Nc2ccc(C(F)(F)F)cc2)Oc2c(NS(C)(=O)=O)cccc2C1=O,inactive: 0.951
5,OCC1OC(Oc2cc(O)cc(C=Cc3ccc(O)cc3)c2)C(O)C(O)C1O (stereo not given),inactive: 0.931
6,C[C@H]1CN([C@@H](C)CO)C(=O)c2cccc(NC(=O)CCCCCC(=O)Nc3ccccc3N)c2O[C@H]1CN(C)C(=O)Nc1cccc2ccccc12,inactive: 0.992
7,C[C@H](CO)N1C[C@H](C)[C@H](CN(C)C(=O)C2CCCCC2)OCCCC[C@H](C)Oc2ccc(NS(=O)(=O)c3cccs3)cc2C1=O,inactive: 1.01
8,C[C@H](CO)N1C[C@H](C)[C@H](CN(C)C(=O)CN(C)C)Oc2ncc(-c3ccc(C(=O)N(C)C)cc3)cc2C1=O,inactive: 0.976
9,O=C(C[C@H]1C[C@@H]2c3cc(NC(=O)Nc4ccccc4F)ccc3O[C@@H]2[C@@H](CO)O1)NCc1ccc(Oc2ccccc2)cc1,inactive: 0.994
10,C=C(NC(=O)C(=C)NC(=O)c1csc(C2=NC3c4csc(n4)C4NC(=O)c5csc(n5)C(C(C)(O)C(C)O)NC(=O)C5CSC(=N5)C(=CC)NC(=O)C(C(C)O)NC(=O)c5csc(n5)C3(CC2)NC(=O)C(C)NC(=O)C(=C)NC(=O)C(C)NC(=O)C(C(C)CC)NC2C=Cc3c(C(C)O)cc(nc3C2O)C(=O)OC4C)n1)C(N)=O (stereo not given),inactive: 1.13
11,C[C@@H]1CN([C@@H](C)CO)C(=O)c2cc(NC(=O)Nc3cccc4ccccc34)ccc2O[C@H]1CN(C)S(=O)(=O)c1ccccc1,inactive: 1.03
12,CCCNC(=O)N(C)C[C@@H]1Oc2cc(-c3ccccc3F)ccc2S(=O)(=O)N([C@@H](C)CO)C[C@@H]1C,inactive: 0.987
13,CN[C@H](CC(=O)O)C(=O)O,inactive: 1.02
14,C[C@H]1CN([C@@H](C)CO)C(=O)Cc2cc(NC(=O)CCCCCC(=O)Nc3ccccc3N)ccc2O[C@@H]1CN(C)Cc1ccc(-c2ccccc2)cc1,inactive: 1
15,COc1ccc(NC(=O)Nc2ccc3c(c2)C(=O)N([C@@H](C)CO)C[C@H](C)[C@H](CN(C)C(=O)Nc2ccccc2)OCCCC[C@@H](C)O3)cc1,inactive: 1.01
16,CC(C)NC(=O)Nc1ccc2c(c1)C(=O)N([C@H](C)CO)C[C@H](C)[C@@H](CN(C)C(=O)Nc1cccc3ccccc13)OCCCC[C@@H](C)O2,inactive: 1
17,C[C@H](CO)N1C[C@H](C)[C@H](CN(C)C(=O)NC2CCCCC2)OCCCC[C@H](C)Oc2ccc(NC(=O)Nc3ccc4c(c3)OCO4)cc2C1=O,inactive: 1.02
18,C[C@H](CO)N1C[C@H](C)[C@H](CN(C)CC2CC2)OCCCC[C@H](C)Oc2ccc(NC(=O)C3CCCCC3)cc2C1=O,inactive: 0.938
19,C[C@H]1CN([C@@H](C)CO)C(=O)Cc2cc(NS(=O)(=O)c3ccc(F)cc3)ccc2O[C@@H]1CN(C)S(C)(=O)=O,inactive: 0.927
20,C[C@@H]1CN([C@H](C)CO)C(=O)c2cc(-c3cccc(C(=O)N(C)C)c3)cnc2O[C@@H]1CN(C)S(=O)(=O)c1ccccc1,inactive: 0.987

row,Structure (SMILES),relative growth
1,NCc1cnc2ccccc2c1,inactive: 1.01
2,C[C@@H]1CN([C@@H](C)CO)C(=O)c2cc(NC(=O)Nc3ccc(C(F)(F)F)cc3)ccc2O[C@@H](C)CCCCO[C@@H]1CN(C)Cc1ccccc1,inactive: 1.02
3,CC(C)CNC(=O)[C@@H]1c2ccccc2C(=O)N(Cc2ccccc2C(F)(F)F)[C@H]1c1ccc(CO)cc1,inactive: 0.984
4,C[C@H]1CN([C@@H](C)CO)C(=O)c2cccc(NS(=O)(=O)c3ccc(Cl)cc3)c2O[C@H]1CN(C)Cc1ccc(Oc2ccccc2)cc1,inactive: 0.961
5,COc1cc(C=CC(=O)C=C(O)C=Cc2ccc(O)c(OC)c2)ccc1O,inactive: 1.1
6,Cc1cc(C(=O)Nc2cccc3c2O[C@@H](CN(C)C(=O)Nc2ccc4c(c2)OCO4)[C@@H](C)CN([C@H](C)CO)C3=O)n(C)n1,inactive: 0.994
7,C[C@@H]1CN([C@H](C)CO)C(=O)c2cc(NC(=O)Nc3ccccc3)ccc2O[C@@H](C)CCCCO[C@H]1CN(C)C(=O)NC1CCCCC1,inactive: 0.939
8,CO[C@@H](CN(C)S(=O)(=O)c1cn(C)cn1)[C@@H](C)CN(C(=O)Nc1ccc(C(F)(F)F)cc1)[C@@H](C)CO,inactive: 0.87
9,CN1CCN(C(=O)C[C@H]2CC[C@H]3[C@@H](COC[C@H](O)CN3S(=O)(=O)c3cccc(Cl)c3)O2)CC1,inactive: 1.02
10,C[C@H]1CNC(=O)O1,inactive: 1.01
11,Cc1ccc(S(=O)(=O)Nc2ccc3c(c2)C(=O)N([C@H](C)CO)C[C@H](C)[C@H](CN(C)C(=O)Cc2ccccc2)OCCCC[C@@H](C)O3)cc1,inactive: 1
12,O=C(C[C@H]1CC[C@@H]2[C@H](COC[C@@H](O)CN2S(=O)(=O)c2ccc(F)cc2)O1)NCc1ccc(Cl)c(Cl)c1,inactive: 1.01
13,COC(CNC(=O)C(=O)NC[C@H]1OCCN1C(=O)c1ccc2c(c1)OCO2)OC,inactive: 1.02
14,C[C@@H]1CN([C@H](C)CO)C(=O)c2cc(NC(=O)NC3CCCCC3)ccc2O[C@@H](C)CCCCO[C@@H]1CN(C)C(=O)CCC(F)(F)F,inactive: 0.979
15,C[C@@H]1CCCCO[C@@H](CN(C)C(=O)Nc2ccc(F)cc2)[C@H](C)CN([C@H](C)CO)C(=O)c2cc(NC(=O)CCC(F)(F)F)ccc2O1,inactive: 1.02
16,C[C@H]1CN([C@@H](C)CO)C(=O)Cc2cc(NC(=O)Nc3ccc(C(F)(F)F)cc3)ccc2O[C@@H]1CN(C)Cc1ccc2c(c1)OCO2,inactive: 0.959
17,COc1ccc(CN(C)C[C@H]2OCCCC[C@H](C)Oc3ccc(NC(=O)Nc4ccc(OC)cc4)cc3C(=O)N([C@@H](C)CO)C[C@H]2C)cc1,inactive: 0.901
18,Cc1noc(C)c1S(=O)(=O)N(C)C[C@@H]1Oc2ccc(NC(=O)Nc3ccccc3)cc2CC(=O)N([C@@H](C)CO)C[C@H]1C,inactive: 0.936
19,Cc1noc(C)c1NC(=O)Nc1ccc2c(c1)CC(=O)N([C@H](C)CO)C[C@H](C)[C@@H](CN(C)C(=O)Nc1cccc3ccccc13)O2,inactive: 1.05
20,NS(=O)(=O)c1cc2c(cc1Cl)NC(C(Cl)Cl)NS2(=O)=O (stereo not given),inactive: 1.01

row,Structure (SMILES),relative growth
1,NC(=S)NCCC[C@H](N)C(=O)O,inactive: 1.01
2,COc1ccc(S(=O)(=O)N(C)C[C@@H]2Oc3ccc(NS(=O)(=O)c4cccs4)cc3C(=O)N([C@H](C)CO)C[C@H]2C)cc1,inactive: 0.992
3,C[C@@H]1CCCCO[C@H](CN(C)Cc2ccc3c(c2)OCO3)[C@H](C)CN([C@H](C)CO)C(=O)c2cc(NC(=O)CCC(F)(F)F)ccc2O1,inactive: 0.996
4,C[C@@H]1CCCCO[C@@H](CN(C)S(=O)(=O)c2cn(C)cn2)[C@H](C)CN([C@@H](C)CO)C(=O)c2cc(NS(C)(=O)=O)ccc2O1,inactive: 0.992
5,Cc1ccc(S(=O)(=O)N(C)C[C@H]2Oc3ncc(C#CC4(O)CCCC4)cc3C(=O)N([C@H](C)CO)C[C@@H]2C)cc1,inactive: 1.02
6,CON=C(C(=O)N[C@@H]1C(=O)N2C(C(=O)OCOC(=O)C(C)(C)C)=C(C=Cc3scnc3C)CS[C@H]12)c1csc(N)n1,active: 0.0386
7,CCCCCCCCCCCCCCCCCCCCCCO,inactive: 0.979
8,C[C@@H]1CCCCO[C@H](CN(C)C(=O)Nc2cccc3ccccc23)[C@H](C)CN([C@@H](C)CO)C(=O)c2cc(NS(=O)(=O)c3cn(C)cn3)ccc2O1,inactive: 0.994
9,NCCc1cnc[nH]1,inactive: 1.02
10,O=C(NCCN1CCOCC1)C(=O)Nc1cc2c3c(c1)CCN3C(=O)CC2,inactive: 0.958
11,C[C@@H]1CN([C@H](C)CO)C(=O)Cc2cc(NC(=O)Nc3cccc4ccccc34)ccc2O[C@@H]1CN(C)C(=O)Nc1ccc(F)cc1,inactive: 1.03
12,CC(C)CC#Cc1cnc2c(c1)C(=O)N([C@H](C)CO)C[C@@H](C)[C@H](CN(C)S(=O)(=O)c1ccccc1)O2,inactive: 1.03
13,Nc1cc(F)ccc1CO,inactive: 0.992
14,C=CCN1C(=O)[C@@]2(O[C@@H](CCO)[C@H]([Si](C)(C)c3ccc(OC)cc3)[C@H]2C)c2cc(N(C=O)c3ccccc3)ccc21,inactive: 0.992
15,Cc1noc(C)c1NC(=O)N(C)C[C@@H]1Oc2c(NC(=O)Nc3ccc(C(F)(F)F)cc3)cccc2C(=O)N([C@H](C)CO)C[C@H]1C,inactive: 0.993
16,COc1ccc(S(=O)(=O)N(C)C[C@@H]2Oc3ncc(Br)cc3C(=O)N([C@H](C)CO)C[C@@H]2C)cc1,inactive: 0.98
17,Cc1noc(C)c1S(=O)(=O)Nc1ccc2c(c1)CC(=O)N([C@@H](C)CO)C[C@@H](C)[C@H](CN(C)C(=O)Nc1ccccc1)O2,inactive: 0.992
18,CCO/N=[N+](\[O-])N1CCCC1,inactive: 1.01
19,C[C@@H]1CN([C@H](C)CO)S(=O)(=O)c2ccc(C#CCN(C)C)cc2O[C@H]1CN(C)Cc1ccncc1,inactive: 0.959
20,C[C@@H]1CN([C@@H](C)CO)C(=O)c2cc(NS(=O)(=O)c3ccccc3)ccc2O[C@@H]1CN(C)S(C)(=O)=O,inactive: 0.946
